Our source for the binding signal values is PMC12136788.

Some of the results follow.

T1: UNK ZnF1-3 (human, UniProt Q9C0B0 31-174)
T1 sequence: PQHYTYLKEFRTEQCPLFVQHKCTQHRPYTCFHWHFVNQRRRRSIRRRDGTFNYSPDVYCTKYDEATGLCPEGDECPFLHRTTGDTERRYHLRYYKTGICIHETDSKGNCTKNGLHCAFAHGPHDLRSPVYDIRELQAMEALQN

B1: chr11:29608385:29608386:+_ENSMUSG00000020458_ENSMUST00000102843|mus_mus|motif|central (ssRNA)
RNA: GGGAGUUCUACAGUCCGACGAUCGUCAGUGUACUCCUUAGGAGAAUCAUCUUUAGCACUGACAAAUGUGGGAAACUCAUCGGUUAUCUCAAUGGGAGAUGAAUCGGAAAAUGUUUCACUUUCUUUCAUUUUGUCUUCCUUAGACAACAGAGGAUUGAGCAUCA
B2: chr4:175158536:175158537:-_ENSG00000164117_ENST00000503293|hu_hu|motif|central (ssRNA)
RNA: GGGAGUUCUACAGUCCGACGAUCGCUUGAUUGUAUACUCAGGCUACAAUGACCAGCACUGAUGUAACCCCCAUAUCUGCGGAGUCCUUGGGUAGCUUUAGUCUGAAGUAAAAACUGAAGUCCUAGCAAUUGUGCUUUUUAUGCCAACAGAGGAUUGAGCAUCA
B3: chr16:68260615:68260616:+_ENSG00000072736_ENST00000346183|hu_hu|motif|central (ssRNA)
RNA: GGGAGUUCUACAGUCCGACGAUCGAAACAAGAGAGCCUGCUGCAUUCACACUCAAAGCACCCAUCAUAUAAAAGUAUCCGGGUUAAAUAUAAAAAGCAAAGUUCAUUUCCCCAAAGCUCAAACAGCCUAUGCUGCUCCUGUUCCAACAGAGGAUUGAGCAUCA
B4: chr10:114798999:114799000:-_ENSMUSG00000069520_ENSMUST00000092170|mus_hu|FALSE|FALSE (ssRNA)
RNA: GGGAGUUCUACAGUCCGACGAUCUCAUCUUUAUAUAUCUUUUGCAUAUAUUGUCGUUAAGAUCUGUCAUGGAAAAUAAGGAUAUGAGCUCCUGCGGGAAAGAAUAUUUAGCGUUUCGGAGAGAAAGUCAUUUACGAUGUGAGCCAACAGAGGAUUGAGCAUCA
B5: chr1:166823625:166823626:+_ENSG00000143157_ENST00000367875|hu_hu|FALSE|FALSE (ssRNA)
RNA: GGGAGUUCUACAGUCCGACGAUCUAUUGUUGGGGUCAGUUCCUAUCUACUAGGGAGUACAACUAUAUCUCAAUAUGUGCUAUAGUAAUUCUAGGGUAACAGCCAUUCUGCAAAAUAGUUGUACUGGGGCUCUGUUAGGCAUAGCAACAGAGGAUUGAGCAUCA
B6: chr9:113828744:113828745:+_ENSMUSG00000033392_ENSMUST00000111838|mus_mus|motif|central (ssRNA)
RNA: GGGAGUUCUACAGUCCGACGAUCAAGUAAUGUUAUGUACAGUUUUAUUGCCAGUAUAUGCACAACAGUAAGCAUAGAGCGGUAAAUACACAAUGUCAUUAACAGUAGAAAACAAAACUGUUACAGUAGGGAGAGGGUGUGGAGCAACAGAGGAUUGAGCAUCA
B7: chr9:122046571:122046572:+_ENSMUSG00000038145_ENSMUST00000120173|mus_hu|motif|central (ssRNA)
RNA: GGGAGUUCUACAGUCCGACGAUCUUGAAAUUUGUUGCUGAACCCAAAGUCUGUCAACUUUACAAGACCUUGUUUUUCAAAGAAGACGGCAUUCUCUGGUUUUAAGUCUCUGUGAACCACAUGGAGUUUAUGGCAAUAAGAUAUCAACAGAGGAUUGAGCAUCA
B8: chr1:60041781:60041782:+_ENSMUSG00000041040_ENSMUST00000036540|mus_hu|mus_mus_mus_hu_False|8_58 (ssRNA)
RNA: GGGAGUUCUACAGUCCGACGAUCAAGUUUACAAUAGUAAAGUAAAUGCAGUAGUGGCAAAUUUUCUUUUAUUUUCCUUCCUAAAAGAAAAUCUUUAUAACCCAGUCCUAGUCUUGGACAUAGUGAAUCUCCAUGGGUCUGACUCAACAGAGGAUUGAGCAUCA
B9: chr6:114281168:114281169:-_ENSG00000196591_ENST00000368632|hu_hu|motif|central (ssRNA)
RNA: GGGAGUUCUACAGUCCGACGAUCUUCCAUUUUUCUGUAUAAGCCAUAAUUUAACAGCAAGUUAUGGGUCAUGCGGAUUCGGUGAGGCUUCAUGGGAUGACCCUGUCCAUAAUAAUAAUUUCCAAUAUCACAGAUUCACUAGAACAACAGAGGAUUGAGCAUCA
B10: 180451576_180451696_634_3pUTR_ENSMUSG00000027573_ENSMUST00000029090|mouse|control|control (ssRNA)
RNA: GGGAGUUCUACAGUCCGACGAUCGCAAGGCCAGUGUGCGCUCCAUCUCUGUGAGGCAUUCUCGGCUUUCCUCACCCUGCUCUGCCAGUUGUGUCUGGGCAAACUCCAAUGCUGCUUCUGUCUCACGCUGACGGAUAAGCUCAACAACAGAGGAUUGAGCAUCA
B11: chrX:119742084:119742085:+_ENSG00000232119_ENST00000371317|hu_mus|FALSE|FALSE (ssRNA)
RNA: GGGAGUUCUACAGUCCGACGAUCAAAAGGAUAUUUAUGAAGUAAUCUUAAAGUUGGAUAAAAAGGCCCUUCUCUUUGUCUAAAAAACAGUAAUUCUCCAUUUACUGUAAGGAUUUCUAUGUGUUCAUGGCAUCGGACAAUUUUCAACAGAGGAUUGAGCAUCA
B12: chr1:130485734:130485735:-_ENSMUSG00000045382_ENSMUST00000052172|mus_mus|mus_mus_mus_hu_False|78_88 (ssRNA)
RNA: GGGAGUUCUACAGUCCGACGAUCGAUGAAGGAGUCGAUGCUGAUCCCCACAUAAUAUGGCAGCCAGCAGGCGAAGAAAGCCAGGAUGAGGAUGACUGUGGUCUUGAGGGCCUUGCGCUUCUGGUGGCCCUUGGAGUGUGACAGCAACAGAGGAUUGAGCAUCA
B13: 194672613_194672733_1323_3pUTR_ENSMUSG00000016262_ENSMUST00000016406|mouse|control|control (ssRNA)
RNA: GGGAGUUCUACAGUCCGACGAUCGCUCCUUUUUCCUCAAAGACUUUUUCCAAGACUCACUCACACGGUUUCUCUCAUUAUAUCCAGUCUCAAAAUAAUCGUAAAAUUGGCCUUUGCACUCAAAAUCAAGGUCGUUCCCCACAGCAACAGAGGAUUGAGCAUCA
B14: chr8:74858975:74858976:-_ENSG00000154582_ENST00000284811|hu_mus|hu_hu_hu_mus_True|18_68 (ssRNA)
RNA: GGGAGUUCUACAGUCCGACGAUCGACCUUGUAGGUAAAAUACAUGCACACUUUUGAUAGCACAUGUGAAGGUAUCUCUCUAAAAUUGACCUCGUUGGUUUCAUUCUCAGCAAACUGACCUGGGCCACUCAACAUAGCCUUUAUCAACAGAGGAUUGAGCAUCA
B15: 31022552_31023692_238_3pUTR_ENSMUSG00000000194_ENSMUST00000056433|mouse|control|control (ssRNA)
RNA: GGGAGUUCUACAGUCCGACGAUCGAAUCCGAUCUCAGCAUCCUUGUCCGUGGCUCCCUCAGGCUCGUUCACAGAGAGGCUGCUGACGUUGACCACCAUGUACCCAUCCUUGAAGAACCCGAAGGUGUUGAGAUGGACUUUAUGCAACAGAGGAUUGAGCAUCA
B16: chrX:114877694:114877695:+_ENSG00000102024_ENST00000355899|hu_mus|motif|central (ssRNA)
RNA: GGGAGUUCUACAGUCCGACGAUCGUUCAGUUUGGGGUUUCCGCUGACAACAUCAGCUGGAGUAACGAACUGUCUGCAACCGGAUUUAUCUGCUUGUUGAAGCAUACUUUCGGCUCUCUUUAAAUCAUCAGUUUCAUUGAAACCCAACAGAGGAUUGAGCAUCA
B17: 61661049_61662668_991_CDS_ENSG00000136485_ENST00000310827|human|control|control (ssRNA)
RNA: GGGAGUUCUACAGUCCGACGAUCUGAAUGUGGGGCCCAAGCAAUGCCAUUGACACAUGCUCGAUGGUUGUUUAACCUGGCGACAGGUGUGCAGGGAACCCGGACAUCUAGAAUCACCACCUCCAUUCCAUCCAUGGCCAUGGUCAACAGAGGAUUGAGCAUCA
B18: chr12:45699863:45699864:+_ENSMUSG00000020598_ENSMUST00000020939|mus_mus|motif|central (ssRNA)
RNA: GGGAGUUCUACAGUCCGACGAUCUGCAGCAUGUCUCAUGCAUCGUAUUGAACUGGAUCCCGCACAGGGAAUAAUGUAAUCGGUUGAUGAUGUUGUAUUUCUUUUUAAUCAGUUCCAAGGAAAUUGAGAAAAACCCCACUCUGACAACAGAGGAUUGAGCAUCA
B19: chr1:59925254:59925255:+_ENSMUSG00000067336_ENSMUST00000087435|mus_mus|motif|central (ssRNA)
RNA: GGGAGUUCUACAGUCCGACGAUCAUCUUGUUCUGAACAUGGAUUGCUGUUGUUGUUAUUGGAAUUUGUUCGGCCACCUUCGGAUGGCCGUUCCCUCCUAUCUACCAAACGAUCCAGAACCCCUUCAUCAUGGCCAGCCUGUUGCAACAGAGGAUUGAGCAUCA
B20: chr6:38652254:38652255:-_ENSG00000124767_ENST00000373365|hu_hu|motif|central (ssRNA)
RNA: GGGAGUUCUACAGUCCGACGAUCUGAAAACUUCAUAAUGGGAAAAUCACAUUUUUGGAUUAGCGUCAUUCCAAGAACUCGGGUAUAAAAAUCCAGUGACUUCUUAGGAUCCUUCACUCGUAGCAUGGUCUGCUGCAAUAGAAACAACAGAGGAUUGAGCAUCA
B21: 406267_416132_4476_CDS_ENSG00000073614_ENST00000399788|human|control|control (ssRNA)
RNA: GGGAGUUCUACAGUCCGACGAUCCCACAUGUGGGUCACCACCUCCUCGGAUUUGAUGGGAAUCUCUUCAUCACAAAAAAGAUUGGGUUCAAGACUACUAGAGGACUUCACACUGGCUGUGUCCUUCAUGUCGUAGCCAUAUGUCAACAGAGGAUUGAGCAUCA
B22: 164712118_164712570_1168_3pUTR_ENSMUSG00000039849_ENSMUST00000041643|mouse|control|control (ssRNA)
RNA: GGGAGUUCUACAGUCCGACGAUCGGGGAUGCACUCCUGGACUCAAUGAGCCGCCUGGCAGCUUCUGCGUAUUUAAAGAGCAGGCGUUUGGCUUCCUCCCGGAACUUGAUUCGGGAUAACCUGAUGGGAAUGUCAUUCAUAAUUCAACAGAGGAUUGAGCAUCA

This experiment deals with T1, UNK ZnF1-3. The experiment in a line: nsRBNS (natural sequence RNA bind-n-seq); RBNS binding buffer (assumed for nsRBNS): 25 mM Tris pH 7.5, 150 mM KCl, 3 mM MgCl2, 0.01% Triton X-100, 500 ug/ml BSA, 20 U/ml SUPERase-In, 4 C; UNK is unkempt and MSI1 is Musashi-1; names of the RNAs are library labels; protein concentration not given here; high values mean tight binding.
B1 came in with a binding signal of 0.265 enrichment R.

For B2, the binding signal came out at 0.687 enrichment R.

For B3, the binding signal is 2.9 enrichment R.

As for B4, the binding signal was 1.41 enrichment R.

B5 gave a binding signal of 1.34 enrichment R.

In turn, B6 showed a binding signal of 1.28 enrichment R.

In the case of B7, the binding signal is 0.854 enrichment R.

Consider B8, for which the binding signal came out at 0.811 enrichment R.

Take B9: the binding signal was determined as 1.07 enrichment R.

Molecule B10 displayed a binding signal of 0.654 enrichment R.

Consider B11, for which the binding signal was 0.58 enrichment R.

The molecule B12 registered a binding signal of 1.26 enrichment R.

B13: the binding signal worked out at 1.19 enrichment R.

B14 came in with a binding signal of 0.594 enrichment R.

As for B15, the binding signal was 0.392 enrichment R.

As to B16, the binding signal came to 0.485 enrichment R.

Take B17: the binding signal was 0.757 enrichment R.

B18 returned a binding signal of 1.32 enrichment R.

The molecule B19 registered a binding signal of 0.592 enrichment R.

B20 returned a binding signal of 0.51 enrichment R.

Turning to B21, the binding signal was 1.02 enrichment R.

In the case of B22, the binding signal was found to be 0.859 enrichment R.
